{"sequences": {"note": "Sequences of proteins named here, by UniProt entry; tags and fusion partners are left off.", "UniProt P03107": "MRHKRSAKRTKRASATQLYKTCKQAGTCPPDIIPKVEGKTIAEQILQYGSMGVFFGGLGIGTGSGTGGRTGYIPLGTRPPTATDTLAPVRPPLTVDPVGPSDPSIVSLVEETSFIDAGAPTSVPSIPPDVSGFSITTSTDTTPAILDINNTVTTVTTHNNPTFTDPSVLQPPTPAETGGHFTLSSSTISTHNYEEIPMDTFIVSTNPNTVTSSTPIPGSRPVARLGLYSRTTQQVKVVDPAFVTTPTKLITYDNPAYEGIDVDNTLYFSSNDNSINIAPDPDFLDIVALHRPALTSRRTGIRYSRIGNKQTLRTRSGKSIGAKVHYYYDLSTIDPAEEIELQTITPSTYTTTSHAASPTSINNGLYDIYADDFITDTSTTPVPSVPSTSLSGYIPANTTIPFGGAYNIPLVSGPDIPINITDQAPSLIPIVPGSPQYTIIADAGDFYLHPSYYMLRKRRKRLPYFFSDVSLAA", "UniProt P03101": "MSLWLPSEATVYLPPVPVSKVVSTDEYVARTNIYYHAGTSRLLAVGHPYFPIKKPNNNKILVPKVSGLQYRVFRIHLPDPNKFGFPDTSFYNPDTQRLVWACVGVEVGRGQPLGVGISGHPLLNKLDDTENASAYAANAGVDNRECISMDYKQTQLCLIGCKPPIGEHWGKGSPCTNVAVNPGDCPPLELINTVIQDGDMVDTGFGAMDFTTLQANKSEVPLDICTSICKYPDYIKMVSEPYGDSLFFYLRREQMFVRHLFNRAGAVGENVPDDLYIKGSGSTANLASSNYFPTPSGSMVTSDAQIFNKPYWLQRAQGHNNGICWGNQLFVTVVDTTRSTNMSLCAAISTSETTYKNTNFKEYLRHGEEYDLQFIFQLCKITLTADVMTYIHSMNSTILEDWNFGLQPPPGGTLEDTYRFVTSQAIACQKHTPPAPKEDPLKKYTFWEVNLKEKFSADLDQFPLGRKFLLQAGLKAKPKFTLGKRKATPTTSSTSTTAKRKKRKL", "UniProt O14964": "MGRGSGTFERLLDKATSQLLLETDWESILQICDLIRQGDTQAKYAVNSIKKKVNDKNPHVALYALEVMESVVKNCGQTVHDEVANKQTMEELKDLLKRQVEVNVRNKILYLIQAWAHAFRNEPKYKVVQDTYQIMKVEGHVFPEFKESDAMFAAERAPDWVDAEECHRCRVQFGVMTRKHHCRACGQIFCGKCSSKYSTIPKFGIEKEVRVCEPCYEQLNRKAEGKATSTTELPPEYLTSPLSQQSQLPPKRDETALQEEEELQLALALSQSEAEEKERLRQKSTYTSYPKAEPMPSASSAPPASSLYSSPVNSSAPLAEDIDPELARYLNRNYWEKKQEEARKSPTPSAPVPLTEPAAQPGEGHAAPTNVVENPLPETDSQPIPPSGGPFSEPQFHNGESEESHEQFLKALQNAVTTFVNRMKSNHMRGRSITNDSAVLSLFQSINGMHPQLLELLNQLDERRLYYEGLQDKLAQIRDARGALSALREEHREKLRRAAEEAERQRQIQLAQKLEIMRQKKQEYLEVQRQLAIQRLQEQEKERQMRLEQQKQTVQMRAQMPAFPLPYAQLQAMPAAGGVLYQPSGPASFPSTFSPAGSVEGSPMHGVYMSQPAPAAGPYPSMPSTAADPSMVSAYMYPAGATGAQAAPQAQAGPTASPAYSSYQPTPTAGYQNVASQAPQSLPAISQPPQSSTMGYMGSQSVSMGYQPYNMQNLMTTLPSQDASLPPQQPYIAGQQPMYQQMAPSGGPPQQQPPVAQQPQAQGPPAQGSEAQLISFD"}, "source": "paper PMC5368633", "key": {"[1]": {"target": "T1, endogenous VPS4B (human (endogenous in HaCaT)) (UniProt O75351)", "T1 sequence": "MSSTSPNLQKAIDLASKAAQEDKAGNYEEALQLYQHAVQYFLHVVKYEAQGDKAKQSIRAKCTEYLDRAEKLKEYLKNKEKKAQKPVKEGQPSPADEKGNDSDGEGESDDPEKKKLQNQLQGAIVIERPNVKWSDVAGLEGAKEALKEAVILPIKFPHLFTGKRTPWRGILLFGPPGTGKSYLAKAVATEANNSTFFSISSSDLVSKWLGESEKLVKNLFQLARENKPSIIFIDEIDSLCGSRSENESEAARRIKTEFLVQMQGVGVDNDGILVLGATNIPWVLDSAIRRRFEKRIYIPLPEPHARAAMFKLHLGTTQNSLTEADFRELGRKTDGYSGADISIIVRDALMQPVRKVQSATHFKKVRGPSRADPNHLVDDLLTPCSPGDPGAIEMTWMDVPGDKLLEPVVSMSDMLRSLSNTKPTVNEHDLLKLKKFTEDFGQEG", "assay": "co-IP; HaCaT cells infected with HPV-16 PsVs (1 h at 4 °C, then 37 °C), harvested in RIPA 3 h and 6 h post-infection; anti-VPS4B overnight at 4 °C, protein A sepharose; blots for L1 and L2"}, "[2]": {"target": "T1, endogenous VPS4B (human (endogenous in HaCaT))", "assay": "co-IP; as a4, cells harvested 9 h post-infection"}, "[3]": {"target": "HPV-16 L2 GST fusion protein (Human papillomavirus type 16 (HPV-16)) (UniProt P03107)", "assay": "pull-down; purified His-tagged VPS4B proteins added to GST fusion proteins bound to glutathione agarose beads, 2 h at room temperature; washed with PBS containing 1% Triton X-100; western blotting; both purified"}, "[4]": {"target": "HPV-16 L1 GST fusion protein (Human papillomavirus type 16 (HPV-16)) (UniProt P03101)", "assay": "pull-down; purified His-tagged VPS4B proteins added to GST fusion proteins bound to glutathione agarose beads, 2 h at room temperature; washed with PBS containing 1% Triton X-100; western blotting; both purified"}, "[5]": {"target": "HPV-16 L2 GST fusion protein (Human papillomavirus type 16 (HPV-16)) (UniProt P03107)", "assay": "pull-down; purified GST fusion proteins incubated with clarified RIPA extracts of transfected HEK293 cells, 2 h at room temperature; extensive washing; western blotting; only the target purified"}, "[6]": {"target": "HPV-16 L1 GST fusion protein (Human papillomavirus type 16 (HPV-16)) (UniProt P03101)", "assay": "pull-down; purified GST fusion proteins incubated with clarified RIPA extracts of transfected HEK293 cells, 2 h at room temperature; extensive washing; western blotting; only the target purified"}, "[7]": {"target": "HPV-16 L1 GST fusion protein (Human papillomavirus type 16 (HPV-16)) (UniProt P03101)", "assay": "pull-down; as a1 with VPS4B-DsRed extract, beads washed with increasing concentrations of Triton X-100 (up to 2%) in PBS; western blotting with anti-VPS4B; only the target purified"}, "[8]": {"target": "HPV-16 L1 GST fusion protein (Human papillomavirus type 16 (HPV-16)) (UniProt P03101)", "assay": "pull-down; purified His-tagged VPS4B proteins added to GST fusion proteins bound to glutathione agarose beads, 2 h at room temperature; washed with PBS containing 1% Triton X-100; western blotting; both purified", "remark": "listed apart in the source"}}, "note": "Results are given in words; binding and its absence hold for the method and conditions named. For some assays here: In cells and extracts the contact can be indirect. Some binding calls cover weakened binding; strength is not graded here. For some assays here: Sequences can lack the tags named with a protein."}
{"molecule": "HPV-16 L1 of HPV-16 pseudovirions (from UniProt P03101 1-505)", "values": [{"measurement": "binding", "setting": "[1]", "value": "binds"}, {"measurement": "binding", "setting": "[2]", "value": "no binding (condition: at 9 h post-infection)"}]}
{"molecule": "mutant His-VPS4B 95-444 E235Q (from UniProt O75351 95-444) (domain or fragment)", "values": [{"measurement": "binding", "setting": "[3]", "value": "no binding"}, {"measurement": "binding", "setting": "[4]", "value": "no binding"}]}
{"molecule": "GFP tagged HRS (from UniProt O14964 1-777)", "values": [{"measurement": "binding", "setting": "[5]", "value": "no binding"}, {"measurement": "binding", "setting": "[6]", "value": "no binding"}]}
{"molecule": "GFP tagged VPS4A (protein, UniProt Q9UN37 1-437) MTTSTLQKAIDLVTKATEEDKAKNYEEALRLYQHAVEYFLHAIKYEAHSDKAKESIRAKCVQYLDRAEKLKDYLRSKEKHGKKPVKENQSEGKGSDSDSEGDNPEKKKLQEQLMGAVVMEKPNIRWNDVAGLEGAKEALKEAVILPIKFPHLFTGKRTPWRGILLFGPPGTGKSYLAKAVATEANNSTFFSVSSSDLMSKWLGESEKLVKNLFELARQHKPSIIFIDEVDSLCGSRNENESEAARRIKTEFLVQMQGVGNNNDGTLVLGATNIPWVLDSAIRRRFEKRIYIPLPEEAARAQMFRLHLGSTPHNLTDANIHELARKTEGYSGADISIIVRDSLMQPVRKVQSATHFKKVCGPSRTNPSMMIDDLLTPCSPGDPGAMEMTWMDVPGDKLLEPVVCMSDMLRSLATTRPTVNADDLLKVKKFSEDFGQES", "values": [{"measurement": "binding", "setting": "[5]", "value": "binds"}, {"measurement": "binding", "setting": "[6]", "value": "binds"}]}
{"molecule": "DsRed tagged VPS4B (protein, UniProt O75351 1-444) MSSTSPNLQKAIDLASKAAQEDKAGNYEEALQLYQHAVQYFLHVVKYEAQGDKAKQSIRAKCTEYLDRAEKLKEYLKNKEKKAQKPVKEGQPSPADEKGNDSDGEGESDDPEKKKLQNQLQGAIVIERPNVKWSDVAGLEGAKEALKEAVILPIKFPHLFTGKRTPWRGILLFGPPGTGKSYLAKAVATEANNSTFFSISSSDLVSKWLGESEKLVKNLFQLARENKPSIIFIDEIDSLCGSRSENESEAARRIKTEFLVQMQGVGVDNDGILVLGATNIPWVLDSAIRRRFEKRIYIPLPEPHARAAMFKLHLGTTQNSLTEADFRELGRKTDGYSGADISIIVRDALMQPVRKVQSATHFKKVRGPSRADPNHLVDDLLTPCSPGDPGAIEMTWMDVPGDKLLEPVVSMSDMLRSLSNTKPTVNEHDLLKLKKFTEDFGQEG", "values": [{"measurement": "binding", "setting": "[6]", "value": "binds"}, {"measurement": "binding", "setting": "[7]", "value": "binds"}]}
{"molecule": "His-tagged wild type VPS4B (protein, UniProt O75351 1-444) MSSTSPNLQKAIDLASKAAQEDKAGNYEEALQLYQHAVQYFLHVVKYEAQGDKAKQSIRAKCTEYLDRAEKLKEYLKNKEKKAQKPVKEGQPSPADEKGNDSDGEGESDDPEKKKLQNQLQGAIVIERPNVKWSDVAGLEGAKEALKEAVILPIKFPHLFTGKRTPWRGILLFGPPGTGKSYLAKAVATEANNSTFFSISSSDLVSKWLGESEKLVKNLFQLARENKPSIIFIDEIDSLCGSRSENESEAARRIKTEFLVQMQGVGVDNDGILVLGATNIPWVLDSAIRRRFEKRIYIPLPEPHARAAMFKLHLGTTQNSLTEADFRELGRKTDGYSGADISIIVRDALMQPVRKVQSATHFKKVRGPSRADPNHLVDDLLTPCSPGDPGAIEMTWMDVPGDKLLEPVVSMSDMLRSLSNTKPTVNEHDLLKLKKFTEDFGQEG", "values": [{"measurement": "binding", "setting": "[8]", "value": "binds weakly"}]}
